Results taken from a collection of fitness landscapes (doi:10.1126/science.1257360).
Some of the results follow.

B1: PhoQ; a variant is named by its letters at X, in order, P23837 (parent)
chain: MKKLLRLFFPLSLRVRFLLATAAVVLVLSLAYGMVALIGYSVSFDKTTFRLLRGESNLFYTLAKWENNKLHVELPENIDKQSPTMTLIYDENGQLLWAQRDVPWLMKMIQPDWLKSNGFHEIEADVNDTSLLLSGDHSIQQQLQEVREDDDDAEMTHSVAVNVYPATSRMPKLTIVVVDTIPVELKSSYMVWSWFIYVLSANLLLVIPLLWVAAWWSLRPIEALAKEVRELEEHNRELLNPATTRELTSLVRNLNRLLKSERERYDKYRTTLTDLTHSLKTPLXXLQXXLRSLRSEKMSVSDAEPVMLEQISRISQQIGYYLHRASMRGGTLLSRELHPVAPLLDNLTSALNKVYQRKGVNISLDISPEISFVGEQNDFVEVMGNVLDNACKYCLEFVEISARQTDEHLYIVVEDDGPGIPLSKREVIFDRGQRVDTLRPGQGVGLAVAREITEQYEGKIVAGESMLGGARMEVIFGRQHSAPKDE

Variants of: B1
Test: enrichment ratio after two sorts for PhoP signalling (ratio (wild type AVST 3.29)); higher = more functional
Conditions: with PhoP (E. coli)

Row | Variant | enrichment ratio
1 | MQRW | ≤ 0.25
2 | NIIH | ≤ 0.25
3 | ADYG | ≤ 0.25
4 | MSAP | ≤ 0.25
5 | TAEA | ≤ 0.25
6 | PAEP | ≤ 0.25
7 | LLAF | ≤ 0.25
8 | STMM | 18.6
9 | PTWP | ≤ 0.25
10 | EVIW | ≤ 0.25
11 | YRNH | ≤ 0.25
12 | VRNR | ≤ 0.25
13 | VHNG | ≤ 0.25
14 | AKYW | ≤ 0.25
15 | VMMM | ≤ 0.25
16 | FEVR | ≤ 0.25
17 | ESGN | ≤ 0.25
18 | DNGM | ≤ 0.25
19 | PAGR | ≤ 0.25
20 | PLNC | ≤ 0.25
21 | DDST | 2.65
22 | YLHL | ≤ 0.25
23 | YWYC | ≤ 0.25
24 | VCHV | ≤ 0.25
25 | SPMI | ≤ 0.25

Row | Variant | enrichment ratio
26 | RPYV | ≤ 0.25
27 | YHYY | ≤ 0.25
28 | LGHA | ≤ 0.25
29 | RRCA | ≤ 0.25
30 | IFKN | ≤ 0.25
31 | WFRC | ≤ 0.25
32 | YQLI | ≤ 0.25
33 | ARNP | ≤ 0.25
34 | SICH | 10.3
35 | TMIN | ≤ 0.25
36 | QWAL | ≤ 0.25
37 | LGIN | ≤ 0.25
38 | AIWR | ≤ 0.25
39 | TTQD | ≤ 0.25
40 | RDNG | ≤ 0.25
41 | SIID | ≤ 0.25
42 | MHIN | ≤ 0.25
43 | QDHK | ≤ 0.25
44 | PYAG | ≤ 0.25
45 | LRDI | ≤ 0.25
46 | PMTY | ≤ 0.25
47 | QPCP | ≤ 0.25
48 | FNEE | ≤ 0.25
49 | YPVR | ≤ 0.25
50 | AYSW | ≤ 0.25

Row | Variant | enrichment ratio
51 | KKMF | ≤ 0.25
52 | AIAR | 19.7
53 | YPMT | ≤ 0.25
54 | IFNW | ≤ 0.25
55 | DRDL | ≤ 0.25
56 | VDDH | ≤ 0.25
57 | QRWC | ≤ 0.25
58 | AQCD | 42.7
59 | MDYW | ≤ 0.25
60 | DYDI | ≤ 0.25
61 | YNVG | ≤ 0.25
62 | HVTW | ≤ 0.25
63 | LYPV | ≤ 0.25
64 | FWID | ≤ 0.25
65 | RCVM | ≤ 0.25
66 | RHVF | ≤ 0.25
67 | QFSP | 0.575
68 | SKRG | ≤ 0.25
69 | EHQL | ≤ 0.25
70 | HDVM | ≤ 0.25
71 | IHSM | ≤ 0.25
72 | KSYQ | ≤ 0.25
73 | REWN | ≤ 0.25
74 | DPQN | ≤ 0.25
75 | NQCW | ≤ 0.25

Row | Variant | enrichment ratio
76 | EFYG | ≤ 0.25
77 | TTAM | 17.5
78 | WFTY | ≤ 0.25
79 | TYYN | ≤ 0.25
80 | DKRP | ≤ 0.25
81 | LCQS | ≤ 0.25
82 | NNSR | ≤ 0.25
83 | TCRV | 1.29
84 | YKVI | ≤ 0.25
85 | LRIM | ≤ 0.25
86 | VVFS | ≤ 0.25
87 | TIEG | 11.8
88 | DTSQ | ≤ 0.25
89 | KMNP | ≤ 0.25
90 | LNFN | ≤ 0.25
91 | PSAD | ≤ 0.25
92 | VPGH | ≤ 0.25
93 | QLPT | ≤ 0.25
94 | YVHW | ≤ 0.25
95 | YRDP | ≤ 0.25
96 | FCPI | ≤ 0.25
97 | VPGQ | ≤ 0.25
98 | VAKW | ≤ 0.25
99 | WKHS | ≤ 0.25
100 | TGGV | 4.98

Row | Variant | enrichment ratio
101 | DHHF | ≤ 0.25
102 | AEDV | ≤ 0.25
103 | HCIF | ≤ 0.25
104 | PQHV | ≤ 0.25
105 | TILS | 1.41
106 | MILQ | 14
107 | EFIE | ≤ 0.25
108 | LLNC | ≤ 0.25
109 | PRRT | ≤ 0.25
110 | NFKV | ≤ 0.25
111 | YVVC | ≤ 0.25
112 | EADL | ≤ 0.25
113 | EFQF | ≤ 0.25
114 | YLTT | ≤ 0.25
115 | YIAP | ≤ 0.25
116 | VSPD | ≤ 0.25
117 | SCNG | 2.01
118 | TFEE | ≤ 0.25
119 | WRCR | ≤ 0.25
120 | WSYL | ≤ 0.25
121 | DQRS | ≤ 0.25
122 | NVPF | ≤ 0.25
123 | KMWA | ≤ 0.25
124 | EHSI | ≤ 0.25
125 | RVGA | ≤ 0.25

Row | Variant | enrichment ratio
126 | GSEL | ≤ 0.25
127 | YNDK | ≤ 0.25
128 | HRGE | ≤ 0.25
129 | QRPE | ≤ 0.25
130 | WRYR | ≤ 0.25
131 | DIAR | ≤ 0.25
132 | THFM | ≤ 0.25
133 | RKGT | ≤ 0.25
134 | QTMV | ≤ 0.25
135 | TWRG | ≤ 0.25
136 | FKKE | ≤ 0.25
137 | RPYR | ≤ 0.25
138 | SWEW | ≤ 0.25
139 | AGQP | ≤ 0.25
140 | HITV | ≤ 0.25
141 | FFRW | ≤ 0.25
142 | DEGG | ≤ 0.25
143 | NSWC | ≤ 0.25
144 | VSWC | ≤ 0.25
145 | KHRT | ≤ 0.25
146 | WHRP | ≤ 0.25
147 | SLIE | ≤ 0.25
148 | MNWY | ≤ 0.25
149 | FTKP | ≤ 0.25
150 | LVDC | ≤ 0.25

Row | Variant | enrichment ratio
151 | FYCT | ≤ 0.25
152 | QRHH | ≤ 0.25
153 | WDND | ≤ 0.25
154 | ESYF | ≤ 0.25
155 | PQFL | ≤ 0.25
156 | CGHH | ≤ 0.25
157 | ICMF | ≤ 0.25
158 | HWHH | ≤ 0.25
159 | HLWR | ≤ 0.25
160 | GNTM | 1.94
161 | FMTW | ≤ 0.25
162 | MPGW | ≤ 0.25
163 | WGGK | ≤ 0.25
164 | FVMN | 0.972
165 | HNPG | ≤ 0.25
166 | AEVC | 14.6
167 | WTHN | ≤ 0.25
168 | MQVW | ≤ 0.25
169 | DYTM | ≤ 0.25
170 | KGAC | ≤ 0.25
171 | VCCW | ≤ 0.25
172 | RYES | ≤ 0.25
173 | PSRC | ≤ 0.25
174 | IHDC | ≤ 0.25
175 | VGPL | ≤ 0.25

Row | Variant | enrichment ratio
176 | QESQ | ≤ 0.25
177 | ANDR | ≤ 0.25
178 | NTAD | ≤ 0.25
179 | DAQG | ≤ 0.25
180 | IVPM | ≤ 0.25
181 | YTCE | ≤ 0.25
182 | RALI | ≤ 0.25
183 | ILLD | ≤ 0.25
184 | YCMP | ≤ 0.25
185 | GDWC | ≤ 0.25
186 | SIQS | 2.2
187 | QPTS | ≤ 0.25
188 | YYTG | ≤ 0.25
189 | AHTL | 6.56
190 | PWIL | ≤ 0.25
191 | HKLW | ≤ 0.25
192 | FHAG | ≤ 0.25
193 | DYQD | ≤ 0.25
194 | KVLK | ≤ 0.25
195 | FESM | 1.67
